Measurements: the supplement of paper PMC3334620
In all, about 33,000 sequences were measured (“E-score (-0.5 to 0.5)”: median about -0.035, highest 2% from about 0.35 on). The list shows a part of the results.

These sequences were tested against T1, Pdr3 (UniProt P33200) (assay: PBM E-score (8-mer binding enrichment) (E-score (-0.5 to 0.5)); higher = stronger / more preferred TF binding; most listed sequences are background and not binding sites). Conditions: protein concentration: 200 nM; construct: GST-full length.
T1 sequence: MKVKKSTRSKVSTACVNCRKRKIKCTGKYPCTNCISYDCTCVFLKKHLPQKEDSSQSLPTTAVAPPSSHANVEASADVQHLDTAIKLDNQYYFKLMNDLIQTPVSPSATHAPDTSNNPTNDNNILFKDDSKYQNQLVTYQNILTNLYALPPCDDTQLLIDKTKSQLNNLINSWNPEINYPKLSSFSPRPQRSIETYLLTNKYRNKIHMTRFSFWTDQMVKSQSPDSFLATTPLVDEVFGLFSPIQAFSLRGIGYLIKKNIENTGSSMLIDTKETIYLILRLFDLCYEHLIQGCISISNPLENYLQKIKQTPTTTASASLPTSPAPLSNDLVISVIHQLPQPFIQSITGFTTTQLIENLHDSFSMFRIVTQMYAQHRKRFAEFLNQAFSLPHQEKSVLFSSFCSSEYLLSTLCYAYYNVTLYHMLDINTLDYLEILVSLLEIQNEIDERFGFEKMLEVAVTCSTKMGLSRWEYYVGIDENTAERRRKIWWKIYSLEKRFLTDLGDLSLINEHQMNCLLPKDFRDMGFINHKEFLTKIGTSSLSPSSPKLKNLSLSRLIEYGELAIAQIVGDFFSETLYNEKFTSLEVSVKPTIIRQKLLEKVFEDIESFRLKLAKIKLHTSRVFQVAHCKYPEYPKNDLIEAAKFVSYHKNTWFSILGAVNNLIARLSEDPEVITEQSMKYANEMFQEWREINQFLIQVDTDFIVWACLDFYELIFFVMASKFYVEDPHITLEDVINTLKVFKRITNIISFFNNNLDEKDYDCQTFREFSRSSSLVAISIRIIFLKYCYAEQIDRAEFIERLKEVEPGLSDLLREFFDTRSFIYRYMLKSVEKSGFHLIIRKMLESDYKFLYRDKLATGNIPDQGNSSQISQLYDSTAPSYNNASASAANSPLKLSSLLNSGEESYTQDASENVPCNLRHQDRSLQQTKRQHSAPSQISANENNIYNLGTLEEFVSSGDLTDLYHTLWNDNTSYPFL
How it was run: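 Yeast transcription factors, full-length or as DNA-binding domains, were expressed with a GST tag using PURExpress in vitro transcription/translation. At about 100-200 nM they were applied to universal all-10-mer Agilent arrays, double-stranded by primer extension on fresh or once-stripped slides. Fluorescent anti-GST detected bound protein, and masliner normalised the scans. E-scores for ungapped eight-base words, pooled with reverse complements, came from the Universal PBM Analysis Suite.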

| Sequence | PBM E-score |
| --- | --- |
| ACGGTTAA | -0.038 |
| GTGTATGA | -0.16 |
| AGAGGTAT | 0.179 |
| CACGCGAA | -0.094 |
| CACAAGTG | -0.315 |
| AATCTGCA | -0.0755 |
| GAACGGTC | 0.134 |
| TCTTTTCA | -0.0634 |
| ACGCTCCC | -0.086 |
| AAGCCATA | -0.245 |
| CTATGTAC | -0.211 |
| GAGACGGC | 0.177 |
| CGGCACCA | 0.321 |
| GATTAAGA | -0.00248 |
| GGATCAGA | 0.147 |
| AATACCAA | -0.0155 |
| AACTAATC | 0.098 |
| ATTACCAC | -0.0539 |
| AGGAAAAT | -0.0716 |
| AATATATC | 0.142 |
| GAAGCTTA | -0.154 |
| AACTGACA | -0.17 |

| Sequence | PBM E-score |
| --- | --- |
| ATCAGTCA | 0.0413 |
| ATGAACTC | 0.0804 |
| CTCTTAGC | -0.185 |
| GAATAACA | 0.156 |
| AGGTTTGG | -0.102 |
| ACAAGTCC | -0.0618 |
| ATCTAGAT | -0.155 |
| CAGTGCCA | -0.292 |
| ACCGGAGT | 0.234 |
| GGCTTTAC | 0.0445 |
| AGGAGAAA | -0.15 |
| CTCTATGA | -0.142 |
| AAATTGCG | 0.0648 |
| AATAGACA | -0.138 |
| GACCACTA | 0.0262 |
| GTGTACAA | 0.048 |
| AGACATAT | -0.0467 |
| CACTCGTC | -0.0288 |
| GAACTACA | 0.129 |
| GTGATCCA | -0.142 |
| AAAGCCGG | 0.282 |
| CCCGACGG | 0.351 |

| Sequence | PBM E-score |
| --- | --- |
| ATAAGTTC | 0.276 |
| TATCGCCA | -0.0696 |
| CATCACAA | -0.0793 |
| TATCGACA | 0.079 |
| ACAAGTCT | -0.175 |
| GCCCTTAA | 0.0144 |
| GAAGGGTC | -0.0957 |
| AGCGGCGC | 0.137 |
| CGACATCA | 0.0545 |
| GGGAGCCA | -0.185 |
| AGATAGTA | -0.0343 |
| GCGGCCTA | 0.0147 |
| AACAAGAG | -0.117 |
| CATGCCAC | -0.0725 |
| AAAATTAA | -0.0599 |
| CTTTCACA | 0.108 |
| TACGTGAA | -0.157 |
| CTAAGGGA | -0.0324 |
| AGCGGTCC | 0.0698 |
| AATGCCTG | -0.22 |
| CTACTCAG | -0.204 |
| ATAAATGA | -0.132 |

| Sequence | PBM E-score |
| --- | --- |
| CGCGTCCA | 0.152 |
| GGATACCC | 0.0488 |
| CGCCTTTC | 0.018 |
| CCGAGTCC | 0.268 |
| AAGATGCA | -0.15 |
| TAATTGAA | -0.198 |
| AGACGAAA | 0.0335 |
| CCAGCGCC | -0.114 |
| AATCCCAT | -0.0271 |
| GATCCCGC | 0.371 |
| CGAGATCG | 0.16 |
| AGCTTCAT | 0.196 |
| CCATATCA | -0.0527 |
| CGACCCGC | 0.113 |
| ACGCCTGG | -0.0917 |
| GTTTTTTA | -0.1 |
| CGGGCAAC | 0.161 |
| GTACCACA | -0.0879 |
| CATAATAG | 0.00529 |
| AACTTTAC | 0.00693 |
